Some of the results follow.
Experiments:
Experiment in all cases: glycan array binding signal (z-score within array); higher = stronger binding
Conditions in all cases: glycan notation: IUPAC condensed, linker removed
[1] = molecular target: Man(a1-2)Man(a1-3)[Man(a1-2)Man(a1-6)]Man(a1-6)[Man(a1-2)Man(a1-2)Man(a1-3)]Man
Outline: (§1)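 Glycan array binding is given as a within-array Z-score, which can be read as non-binding when negative. The arrays, 3228 of them, came from the Consortium for Functional Glycomics database and were retained only where the protein sequence was available. Z-scores were averaged across arrays of the same protein sequence at different concentrations or buffers and across linkers.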

[2] = molecular target: Man(a1-2)Man(a1-3)[Man(a1-2)Man(a1-6)]Man(a1-6)[Man(a1-2)Man(a1-2)Man(a1-3)]Man(b1-4)GlcNAc(b1-4)GlcNAc
Outline: as §1

[3] = molecular target: Man(a1-2)Man(a1-3)[Man(a1-6)]Man(a1-6)[Man(a1-2)Man(a1-3)]Man(b1-4)GlcNAc(b1-4)GlcNAc
Outline: as §1

[4] = molecular target: Man(a1-2)Man(a1-6)[Man(a1-3)]Man(a1-6)[Man(a1-2)Man(a1-2)Man(a1-3)]Man
Outline: as §1

[5] = molecular target: Man(a1-2)Man(a1-6)[Man(a1-3)]Man(a1-6)[Man(a1-2)Man(a1-2)Man(a1-3)]Man(b1-4)GlcNAc(b1-4)GlcNAc
Outline: as §1

Man(a1-3)[Man(a1-6)]Man = molecular target: Man(a1-3)[Man(a1-6)]Man
Outline: as §1

[6] = molecular target: Man(a1-3)[Man(a1-6)]Man(a1-6)[Man(a1-2)Man(a1-3)]Man(b1-4)GlcNAc(b1-4)GlcNAc
Outline: as §1

[7] = molecular target: Man(a1-3)[Man(a1-6)]Man(a1-6)[Man(a1-3)]Man
Outline: as §1

[8] = molecular target: Man(a1-3)[Man(a1-6)]Man(a1-6)[Man(a1-3)]Man(b1-4)GlcNAc(b1-4)GlcNAc
Outline: as §1

[9] = molecular target: Man(a1-3)[Man(a1-6)]Man(b1-4)GlcNAc(b1-4)GlcNAc
Outline: as §1

[10] = molecular target: Man(a1-3)[Man(a1-6)]Man(b1-4)GlcNAc(b1-4)[Fuc(a1-6)]GlcNAc
Outline: as §1

Man(a1-6)Man = molecular target: Man(a1-6)Man
Outline: as §1

Man(b1-4)GlcNAc = molecular target: Man(b1-4)GlcNAc
Outline: as §1

MurNAc(b1-4)GlcNAc = molecular target: MurNAc(b1-4)GlcNAc
Outline: as §1

Neu5Ac(a2-3)Gal = molecular target: Neu5Ac(a2-3)Gal
Outline: as §1

[11] = molecular target: Neu5Ac(a2-3)Gal(b1-3)GalNAc
Outline: as §1

[12] = molecular target: Neu5Ac(a2-3)Gal(b1-3)GalNAc(b1-3)Gal(a1-4)Gal(b1-4)Glc
Outline: as §1

[13] = molecular target: Neu5Ac(a2-3)Gal(b1-3)GalNAc(b1-4)[Neu5Ac(a2-3)]Gal(b1-4)Glc
Outline: as §1

[14] = molecular target: Neu5Ac(a2-3)Gal(b1-3)GalNAc(b1-4)[Neu5Ac(a2-8)Neu5Ac(a2-3)]Gal(b1-4)Glc
Outline: as §1

[15] = molecular target: Neu5Ac(a2-3)Gal(b1-3)GalNAc6S
Outline: as §1

[16] = molecular target: Neu5Ac(a2-3)Gal(b1-3)GlcNAc
Outline: as §1

[17] = molecular target: Neu5Ac(a2-3)Gal(b1-3)GlcNAc(b1-2)Man
Outline: as §1

[18] = molecular target: Neu5Ac(a2-3)Gal(b1-3)GlcNAc(b1-2)Man(a1-3)[GlcNAc(b1-4)][Neu5Ac(a2-3)Gal(b1-3)GlcNAc(b1-2)Man(a1-6)]Man(b1-4)GlcNAc(b1-4)GlcNAc
Outline: as §1

[19] = molecular target: Neu5Ac(a2-3)Gal(b1-3)GlcNAc(b1-2)Man(a1-3)[Neu5Ac(a2-3)Gal(b1-3)GlcNAc(b1-2)Man(a1-6)]Man(b1-4)GlcNAc(b1-4)GlcNAc
Outline: as §1

[20] = molecular target: Neu5Ac(a2-3)Gal(b1-3)GlcNAc(b1-3)Gal(b1-3)GlcNAc
Outline: as §1

[21] = molecular target: Neu5Ac(a2-3)Gal(b1-3)GlcNAc(b1-3)Gal(b1-4)GlcNAc
Outline: as §1

[22] = molecular target: Neu5Ac(a2-3)Gal(b1-3)GlcNAc(b1-3)GalNAc
Outline: as §1

[23] = molecular target: Neu5Ac(a2-3)Gal(b1-3)GlcNAc(b1-4)Gal(b1-4)Glc
Outline: as §1

[24] = molecular target: Neu5Ac(a2-3)Gal(b1-3)GlcNAc(b1-6)GalNAc
Outline: as §1

[25] = molecular target: Neu5Ac(a2-3)Gal(b1-3)GlcNAc6S
Outline: as §1

[26] = molecular target: Neu5Ac(a2-3)Gal(b1-3)[Fuc(a1-4)]GlcNAc
Outline: as §1

[27] = molecular target: Neu5Ac(a2-3)Gal(b1-3)[Fuc(a1-4)]GlcNAc(b1-3)Gal(b1-3)[Fuc(a1-4)]GlcNAc
Outline: as §1

[28] = molecular target: Neu5Ac(a2-3)Gal(b1-3)[Fuc(a1-4)]GlcNAc(b1-3)Gal(b1-4)[Fuc(a1-3)]GlcNAc
Outline: as §1

[29] = molecular target: Neu5Ac(a2-3)Gal(b1-3)[GlcNAc(b1-6)]GalNAc
Outline: as §1

[30] = molecular target: Neu5Ac(a2-3)Gal(b1-3)[Neu5Ac(a2-6)]GalNAc
Outline: as §1

[31] = molecular target: Neu5Ac(a2-3)Gal(b1-3)[Neu5Ac(a2-6)]GlcNAc(b1-3)[Fuc(a1-3)[Gal(b1-4)]GlcNAc(b1-6)]Gal(b1-4)Glc
Outline: as §1

[32] = molecular target: Neu5Ac(a2-3)Gal(b1-3)]Neu5Ac(a2-3)Gal(b1-4)]GlcNAc
Outline: as §1

B1: PX15618B-bfa-464-25-464 (Bacteroides fragilis) (protein)
chain: DQEPPLYVNENDIFTSPTRIEATLNGLYAAIKNTGTKSLMGGKSYLVFDNRGDDVINISNNLVTLFNTYNMNVGITDAENADTWTYAYLAINKVNTFLQSLEGAREVAGENYDRYVQEAKFVRALAYYYLNNLYPTPYSVNPDAKSVPLRLTAEAGTENNNMPRSTVKQIYEHILSDLENISALDTEVNTYTGVTHATQAAANMLKMRVYMAMNEWDKAITAGELVTGYSLPEDVTLIYKAPYFSQESIFSLPMADTNIPNTQQSLAEYYYDGKIMLIDTKSGIMSKPDYSLATDKRIIAFKGEKDLLMKFTDAKTKLQWVPIFRYAETLLDLAECYANKAGGEATAKSLLKQVRGRSVDAATDPLNIDNLSGDALKEAIYNEKRLEFIGEGIRGIDIMRRGEHFIKVGENETINVGPSDEKYTWPIPQVELLLNKDINK
[1]
  glycan array binding signal (z-score): 0.265
[2]
  glycan array binding signal (z-score): -0.218
[3]
  glycan array binding signal (z-score): -0.391
[4]
  glycan array binding signal (z-score): -0.122
[5]
  glycan array binding signal (z-score): -0.199
Man(a1-3)[Man(a1-6)]Man
  glycan array binding signal (z-score): -0.007
[6]
  glycan array binding signal (z-score): -0.269
[7]
  glycan array binding signal (z-score): -0.143
[8]
  glycan array binding signal (z-score): 0.119
[9]
  glycan array binding signal (z-score): -0.306
[10]
  glycan array binding signal (z-score): 0.037
Man(a1-6)Man
  glycan array binding signal (z-score): 0.302
Man(b1-4)GlcNAc
  glycan array binding signal (z-score): 0.054
MurNAc(b1-4)GlcNAc
  glycan array binding signal (z-score): -0.254
Neu5Ac(a2-3)Gal
  glycan array binding signal (z-score): -0.377
[11]
  glycan array binding signal (z-score): -0.426
[12]
  glycan array binding signal (z-score): 0.658
[13]
  glycan array binding signal (z-score): -0.309
[14]
  glycan array binding signal (z-score): -0.526
[15]
  glycan array binding signal (z-score): 0.024
[16]
  glycan array binding signal (z-score): -0.219
[17]
  glycan array binding signal (z-score): -0.66
[18]
  glycan array binding signal (z-score): 0.609
[19]
  glycan array binding signal (z-score): -0.136
[20]
  glycan array binding signal (z-score): -0.299
[21]
  glycan array binding signal (z-score): -0.249
[22]
  glycan array binding signal (z-score): -0.384
[23]
  glycan array binding signal (z-score): -0.752
[24]
  glycan array binding signal (z-score): -0.298
[25]
  glycan array binding signal (z-score): -0.374
[26]
  glycan array binding signal (z-score): -0.454
[27]
  glycan array binding signal (z-score): -0.054
[28]
  glycan array binding signal (z-score): -0.069
[29]
  glycan array binding signal (z-score): -0.588
[30]
  glycan array binding signal (z-score): 0.363
[31]
  glycan array binding signal (z-score): 0.835
[32]
  glycan array binding signal (z-score): -0.545

— the supplement of paper PMC8728848
